Screen size: about 110,000 compounds; about 40 (0.04%) were called active. This list was built around the results that the source calls inconclusive (neither active nor inactive); the mix of calls is not that of the screen. The call rests on the fitted dose curve; in most records, active means well fitted curve in the direction sought with a large enough effect in the signal ratio (not every such curve was filed as active); inconclusive means small, poorly fitted or top-dose-only effect, or a change in a side signal; inactive means flat fitted curve, though single readings scatter; the % refers to the signal ratio. Potencies beside an inconclusive call are fits to weak or partial responses and may not hold up.
Assay: IkB Signaling;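 on IkBa stabilization activation: 0% = basal untreated cells and 100% = reference inhibitor full response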
Settings: ABC-DLBCL IkBa-CBG/CBR dual luciferase ratio (green luciferase fused to IkBa over red control in OCI-Ly3 lymphoma cells), 4 h; IkBa stabilization activation: at 57.1 µM (top of the series), scaled: untreated 0%, proteasome inhibitor 100% unless noted
How it was run: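 Luminescence ratio of IκBα-fused green versus native red beetle luciferase in OCI-Ly3 cells, 4 h post-doxycycline with compound; red signal alone, scaled from basal (0%) to zero light (-100%), flagged nonspecific or cytotoxic effects.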
Potency means the concentration at half of the fitted maximal effect.

| SMILES | IkBa stabilization activation | Potency |
| --- | --- | --- |
| Cc1c(C(=O)CN2CCOCC2)[nH]c2ccccc12 | inconclusive: 8.28% [signal inhibitor] | – |
| CCc1cccc(OCC(=O)Nc2ccc(S(=O)(=O)Nc3cc(C)nc(C)n3)cc2)c1 | inconclusive: 9.77% [signal inhibitor] | – |
| Cc1ccc(-c2nnc(Nc3ccc(O)cc3)c3ccccc23)cc1S(=O)(=O)N1CCN(C)CC1 | inconclusive: 17.4% [signal inhibitor] | – |
| COc1ccc(Nc2cc(C(=O)NCCc3ccc(C)cc3)c3ccccc3n2)c(OC)c1 | inconclusive: 3.08% [signal inhibitor] | – |
| O=c1[nH]n(CC2COC3(CCCCC3)O2)c(=O)c2ccccc12 (configuration not stated) | inconclusive: 17.2% [signal activator] | – |
| COc1ccc(C(=O)SC2=NCCS2)cc1OC | inconclusive: 2.86% [signal inhibitor] | – |
| CCCCOc1ccc(C(=O)Nc2nnc3n2CCS3)cc1 | inconclusive: -0.189% [signal inhibitor] | – |
| O=C(Nc1cccc(C(=O)OCc2cc(=O)n3nc(C4CC4)sc3n2)c1)c1ccccc1 | inconclusive: 7.42% | – |
| Cc1cc(C)cc(OC(C)C(=O)Nc2nonc2-c2ccc(Br)cc2)c1 (configuration not stated) | inconclusive: 0.0207% [signal inhibitor] | – |
| Cc1cccc(S(=O)(=O)C(C#N)c2nc3ccccc3nc2N2CCCC2)c1 (configuration not stated) | inactive: 2.24% | – |
| CC(C)Cn1c(NCCN(C)C)nc2c1c(=O)[nH]c(=O)n2C | inactive: 4.82% | – |
| Cc1ccc(Cl)cc1N(C)C(=O)Cn1nc(Cc2cccnc2)c2ccccc2c1=O | inconclusive: 0.392% [signal inhibitor] | – |
| CCOc1cccc(CNC(=O)c2ccc(N3CCCC3)c(NC(=O)NCc3ccc(F)cc3)c2)c1 | inconclusive: 1.18% [signal inhibitor] | – |
| CCN(CC)CCOC(=O)c1ccc(NC(=O)Cn2ncc3c([nH]c4ccc(C)cc43)c2=O)cc1 | inconclusive: 1.06% [signal inhibitor] | – |
| Nc1nc2ccc(Oc3ccccc3)cc2s1 | inactive: -0.894% | – |
| COCCn1c(CNC(=O)c2ccc(C)cc2)nc2cccnc21 | inactive: 3.54% | – |
| Cc1ccc(-n2nc(C)c(C(=O)NCCCN3CCN(c4ccc(F)cc4)CC3)c2-n2cccc2)cc1 | inconclusive: 0.91% [signal inhibitor] | – |
| Cc1ccnc(NC(=O)C2CCC(CNc3c(N4CCCC4)c(=O)c3=O)CC2)c1 (configuration not stated) | inconclusive: -6.52% [signal inhibitor] | – |
| Cc1cnn(C(=S)NCc2ccco2)c1 | inactive: 7.3% | – |
| Cc1ccccc1CS(=O)(=O)CC1Nc2ccc(C(=O)NCc3ccc(Cl)cc3)cc2NC1=O (configuration not stated) | inconclusive: -4.65% [signal inhibitor] | – |
| CCN(CC)c1ccc2oc(=O)c(C)nc2c1 | – | inconclusive: 3.16 µM [rising, partial curve] |
| Cc1nc2ccccc2c2oc(C(=O)NCc3ccccn3)cc12 | inconclusive: 2.27% [signal inhibitor] | – |
| O=C(O)CSc1nnc(Cn2nnc3ccccc32)n1CCc1ccccc1 | inactive: -0.415% | – |

| SMILES | IkBa stabilization activation | Potency |
| --- | --- | --- |
| CCOc1cc(C(=O)N2CC(=O)Nc3ccc(C)cc3C2c2ccccc2)cc(OCC)c1OCC (configuration not stated) | inconclusive: 0.885% [signal inhibitor] | – |
| CCc1ccc(CN(Cc2ccco2)C(=O)c2ccc(OC)cc2)cc1 | inconclusive: 2.89% [signal inhibitor] | – |
| CN(C)c1ncc2nc(-c3cc(F)cc(F)c3)c(=O)n(C3CC3)c2n1 | inactive: 1.27% [at 11.4 µM, scaled: untreated 0%, proteasome inhibitor 100%] | – |
| CCc1ccc(CNC(=O)CCC(=O)N2Cc3cccc(OC)c3Oc3ncccc32)cc1 | inconclusive: 0.933% [signal inhibitor] | – |
| Cc1cc2ncn(-c3ncnc4sc(C)c(C)c34)c2cc1C | inconclusive: 0.305% [signal inhibitor] | – |
| COc1cc(C(=O)NCCCc2nc3ccccc3n2CC(C)C)cc(OC)c1OC | inactive: -1.79% | – |
| O=C(C1CCN(S(=O)(=O)c2ccc(Br)s2)CC1)N1CCN(c2cccc(Cl)c2)CC1 | inconclusive: 8.78% [signal inhibitor] | – |
| CCOc1ccc(CCNC(=O)c2sc3nc4n(c(=O)c3c2C)CCCC4)cc1OCC | inconclusive: 2.74% [signal inhibitor] | – |
| CCOC(=O)c1ccc(NC(=O)CCn2c(=O)c3cccn3c3ccccc32)cc1 | inconclusive: -0.0359% [signal inhibitor] | – |
| Cc1ccc2[nH]c(CSc3nnc(NC(=O)COc4ccccc4)s3)cc(=O)c2c1 | inconclusive: -1.78% [signal inhibitor] | – |
| COc1ccc(-n2c(SCC(=O)Nc3ccc(Cl)c(C)c3)nc3n[nH]c(C)c3c2=N)cc1 | inconclusive: 4.71% [signal inhibitor] | – |
| CCOC(=O)c1c(NC(=O)c2ccc(S(=O)(=O)N3CCC(C)CC3)cc2)sc2c1CCN(C)C2 | inconclusive: 0.314% [signal inhibitor] | – |
| CCS(=O)(=O)N1CCc2cc(C(=O)Nc3ccc(OC)c(Cl)c3)ccc21 | inactive: 1.76% | – |
| CC1(C)Cc2ccccc2-c2nnc(SCC(=O)Nc3ccc4c(c3)OCO4)n21 | inconclusive: 1.36% [signal inhibitor] | – |
| Cc1cccc(C)c1NC(=O)C(NS(=O)(=O)c1ccc2c(c1)CCC(=O)N2)c1ccccc1 (configuration not stated) | inconclusive: 1.89% [signal inhibitor] | – |
| Cc1c2cnn(-c3ccccc3)c(=O)c2c(C)n1CCCC(=O)Nc1cc(F)ccc1F | inconclusive: 3.91% [signal inhibitor] | – |
| CCN(c1cccc(C)c1)S(=O)(=O)c1nnc(NC(=O)C2CCCCC2)s1 | inconclusive: 2.21% [signal inhibitor] | – |
| O=C(CSC1=Nc2ccccc2C2=NC(CC(=O)NC3CCCCC3)C(=O)N12)Nc1ccc(F)cc1 (configuration not stated) | inconclusive: 13.9% [signal inhibitor] | – |
| COc1ccc(-c2nc3sc(CCNC(=O)c4cc(OC)c(OC)c(OC)c4)c(C)n3n2)cc1 | inconclusive: 2.39% [signal inhibitor] | – |
| CCOc1ccc(C2c3[nH]c4ccccc4c3CCN2C(=O)CCc2ccccc2)cc1 (configuration not stated) | inactive: 3.65% | – |
| CCCCOCCCn1c(-c2ccco2)nc2nc3ccccc3nc21 | inconclusive: -9.4% [signal inhibitor] | – |
| CCCn1c(SCc2ccc(Cl)cc2)nc2c1c(=O)[nH]c(=O)n2C | inconclusive: 2.39% [signal inhibitor] | – |
| COC(=O)c1scc(-c2ccc(C)cc2)c1S(=O)(=O)Nc1cc(Cl)ccc1C | inconclusive: 2.66% [signal inhibitor] | – |

| SMILES | IkBa stabilization activation | Potency |
| --- | --- | --- |
| CCc1ccc(S(=O)(=O)c2cn(CC(=O)Nc3ccc(C)cc3)c3ccccc3c2=O)cc1 | inconclusive: 9.26% [signal inhibitor] | – |
| CCOC(=O)c1[nH]c2c(c1Cc1ccccc1)C(=O)CC(c1ccc(Cl)cc1)C2 (configuration not stated) | inconclusive: 7.9% [signal inhibitor] | – |
| Nc1c(-c2ccccc2)n[nH]c1-c1ccccc1 | – | inconclusive: 15.8 µM [signal inhibitor, partial curve] |
| CCOc1ccc(CCNC(=O)c2ccc3c(Cl)c4c(nc3c2)CCCC4)cc1 | inconclusive: 9.75% [signal inhibitor] | – |
| CCOc1ccccc1NC(=O)c1sc2nc3n(c(=O)c2c1C)CCCCC3 | inconclusive: 3.34% [signal inhibitor] | – |
| Cc1ccc(-c2nc3scc(CCNC(=O)Cc4ccc(Cl)cc4)n3n2)cc1 | inconclusive: 1.06% [signal inhibitor] | – |
| CCOc1ccc(N(C(=O)CC(C)C)S(=O)(=O)c2ccc3c(c2)oc(=O)n3C)cc1 | inconclusive: 14.7% [signal inhibitor] | – |
| CCNc1ncc2nc(-c3ccc(F)cc3)c(=O)n(-c3ccc(OC)cc3)c2n1 | inactive: -1.01% [at 11.4 µM, scaled: untreated 0%, proteasome inhibitor 100%] | – |
| COc1ccc(CCNC(=O)CCCn2c(=O)c3ccccc3n(Cc3cccc(Cl)c3)c2=O)cc1OC | inconclusive: 2.71% [signal inhibitor] | – |
| CCOc1ccc(CC(=O)NCCc2csc(-c3ccc(C)cc3)n2)cc1 | inconclusive: 2.33% [signal inhibitor] | – |
| CCN(CC)c1ccc(NS(=O)(=O)c2ccc(-c3cnc(C4CC4)o3)cc2)c(C)c1 | inconclusive: 6.09% [signal inhibitor] | – |
| NCCCCCCN | inactive: -0.703% | – |
| Cc1noc(C)c1S(=O)(=O)N(CC(=O)NCc1ccc2c(c1)OCO2)c1ccc(C(C)C)cc1 | inconclusive: 1.65% [signal inhibitor] | – |
| CCCn1c(SCc2nc(-c3ccc(OC)cc3OC)no2)nnc1-c1ccc(Cl)cc1 | inconclusive: -0.254% [signal inhibitor] | – |
| Cc1ccc(NC(=O)Cn2cc(C(=O)C3CC3)c3ccccc32)cc1 | inactive: -0.681% | – |
| COc1ccc(-c2noc(CN(C(=O)COc3cc(C)c(Br)c(C)c3)C(C)C)n2)cc1 | inconclusive: 1.76% [signal inhibitor] | – |
| COc1cccc(CNC(=O)c2ccc3nc(N4CCCCC4)sc3c2)c1OC | inconclusive: -0.871% [signal inhibitor] | – |
| Cc1ccc(CN2CCSc3ccc(C(=O)N4CCN(c5ccc(Cl)cc5)CC4)cc32)cc1 | inconclusive: 2.22% [signal inhibitor] | – |
| COc1ccccc1NC(=O)c1cc(S(=O)(=O)NCCc2ccccc2)ccc1F | inconclusive: 6.85% [signal inhibitor] | – |
| O=c1c2cccnc2n(Cc2ccccc2F)c(=O)n1Cc1ccc(F)cc1 | inconclusive: 0.676% [signal inhibitor] | – |
| CCCCN1C(=O)c2[nH]nc(-c3ccccc3O)c2C1c1cc(Br)c(O)c(OC)c1 (configuration not stated) | inconclusive: 1.11% [signal inhibitor] | – |

— PubChem BioAssay AID445 (National Center for Advancing Translational Sciences (NCATS), 2006)
